Source: the supplement of paper PMC7125110
± gives the standard error. Variants at the floor of the assay are shown more often than the library holds them.

B1: glmS ribozyme (parent)
chain: AUAAAAGCGCCAGAACUACAGAAAUGUAGUUGACGAGGAGGAGGUUUAUCGAAUUUUCGGCGGAUGCCUCCAAA

Key:
Conditions in all cases: with glucosamine-6-phosphate
[1] = variants of: B1; experiment: self-cleavage kobs at 640 uM GlcN6P; higher = faster cleavage; RNA array
Outline: (§1)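 kcat and KM were obtained from weighted Michaelis–Menten fits across concentrations of kobs values. Those came from one- or two-exponential decay fits to per-tile medians normalised to baseline and to non-cleaving reference variants. The variants were barcoded ribozymes transcribed in situ by E. coli RNA polymerase on sequenced MiSeq chips and tracked through a hybridised Cy3 probe at 37 °C, with 40 μM to 10 mM glucosamine-6-phosphate in HEPES/KCl/Mg(OAc)2 buffer flowed in.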

[2] = variants of: B1; experiment: self-cleavage kobs at 2500 uM GlcN6P; higher = faster cleavage; RNA array
Outline: as §1

[3] = variants of: B1; experiment: self-cleavage kobs at 160 uM GlcN6P; higher = faster cleavage; RNA array
Outline: as §1

[4] = variants of: B1; experiment: self-cleavage kobs at 10000 uM GlcN6P; higher = faster cleavage; RNA array
Outline: as §1

G13A G37C C58G
self-cleavage kobs at 640 uM GlcN6P [1]: < 1e-05 s⁻¹ | self-cleavage kobs at 2500 uM GlcN6P [2]: < 1e-05 s⁻¹

C11U A15U C70G
self-cleavage kobs at 640 uM GlcN6P [1]: 0.000134 ± 4.8e-05 s⁻¹

A12G C50A C58G G59C
self-cleavage kobs at 640 uM GlcN6P [1]: < 1e-05 s⁻¹

A12G G59C A64U
self-cleavage kobs at 640 uM GlcN6P [1]: < 1e-05 s⁻¹

A14C A15G G38U G59A
self-cleavage kobs at 640 uM GlcN6P [1]: < 1e-05 s⁻¹ | self-cleavage kobs at 2500 uM GlcN6P [2]: < 1e-05 s⁻¹

C11U G29U G37C C70A
self-cleavage kobs at 640 uM GlcN6P [1]: 0.000166 ± 5.6e-05 s⁻¹

G13U U55G U56C
self-cleavage kobs at 640 uM GlcN6P [1]: 7.76e-05 ± 2.4e-05 s⁻¹

G13C G40C A42C
self-cleavage kobs at 640 uM GlcN6P [1]: < 1e-05 s⁻¹ | self-cleavage kobs at 2500 uM GlcN6P [2]: < 1e-05 s⁻¹

A14C A15C G32A A33G
self-cleavage kobs at 640 uM GlcN6P [1]: < 1e-05 s⁻¹

A12C U65G
self-cleavage kobs at 640 uM GlcN6P [1]: 0.000543 ± 8.2e-05 s⁻¹ | self-cleavage kobs at 160 uM GlcN6P [3]: 0.000115 ± 2.1e-05 s⁻¹ | self-cleavage kobs at 2500 uM GlcN6P [2]: 0.00157 ± 0.00024 s⁻¹

A12U G35U
self-cleavage kobs at 640 uM GlcN6P [1]: < 1e-05 s⁻¹

A12G G41C G63C
self-cleavage kobs at 640 uM GlcN6P [1]: < 1e-05 s⁻¹ | self-cleavage kobs at 10000 uM GlcN6P [4]: < 1e-05 s⁻¹

A12U A14G G32U G44C A48U G66A
self-cleavage kobs at 640 uM GlcN6P [1]: < 1e-05 s⁻¹ | self-cleavage kobs at 2500 uM GlcN6P [2]: < 1e-05 s⁻¹

G13U C50U G51C
self-cleavage kobs at 640 uM GlcN6P [1]: < 1e-05 s⁻¹

A14C A33C G40C U56G
self-cleavage kobs at 640 uM GlcN6P [1]: < 1e-05 s⁻¹ | self-cleavage kobs at 2500 uM GlcN6P [2]: < 1e-05 s⁻¹

G13U A14G G29C U30G G32C U56C U65G
self-cleavage kobs at 640 uM GlcN6P [1]: < 1e-05 s⁻¹

A12U A15C G38U
self-cleavage kobs at 640 uM GlcN6P [1]: < 1e-05 s⁻¹ | self-cleavage kobs at 160 uM GlcN6P [3]: < 1e-05 s⁻¹

C11U G40U A42G U49G G59A
self-cleavage kobs at 640 uM GlcN6P [1]: < 1e-05 s⁻¹ | self-cleavage kobs at 2500 uM GlcN6P [2]: < 1e-05 s⁻¹

C11U G32C C50G A52U
self-cleavage kobs at 640 uM GlcN6P [1]: < 1e-05 s⁻¹

G13U A15U A48G U55A
self-cleavage kobs at 640 uM GlcN6P [1]: < 1e-05 s⁻¹

A14C G51C G59U
self-cleavage kobs at 640 uM GlcN6P [1]: < 1e-05 s⁻¹ | self-cleavage kobs at 10000 uM GlcN6P [4]: < 1e-05 s⁻¹

G13U G44U A64C C70A
self-cleavage kobs at 640 uM GlcN6P [1]: < 1e-05 s⁻¹

A12U C67U C71G
self-cleavage kobs at 640 uM GlcN6P [1]: 7.19e-05 ± 2.7e-05 s⁻¹ | self-cleavage kobs at 2500 uM GlcN6P [2]: 6.07e-05 ± 1.3e-05 s⁻¹ | self-cleavage kobs at 10000 uM GlcN6P [4]: 4.02e-05 ± 2e-05 s⁻¹

C11G U57C
self-cleavage kobs at 640 uM GlcN6P [1]: < 1e-05 s⁻¹ | self-cleavage kobs at 160 uM GlcN6P [3]: < 1e-05 s⁻¹ | self-cleavage kobs at 10000 uM GlcN6P [4]: < 1e-05 s⁻¹

A12U A39C G62U
self-cleavage kobs at 640 uM GlcN6P [1]: < 1e-05 s⁻¹ | self-cleavage kobs at 10000 uM GlcN6P [4]: < 1e-05 s⁻¹

C11U G44U G60A C61G
self-cleavage kobs at 640 uM GlcN6P [1]: < 1e-05 s⁻¹ | self-cleavage kobs at 160 uM GlcN6P [3]: < 1e-05 s⁻¹ | self-cleavage kobs at 2500 uM GlcN6P [2]: < 1e-05 s⁻¹

A12U U49A G59U
self-cleavage kobs at 640 uM GlcN6P [1]: < 1e-05 s⁻¹ | self-cleavage kobs at 2500 uM GlcN6P [2]: < 1e-05 s⁻¹

A12G U69A
self-cleavage kobs at 640 uM GlcN6P [1]: 4.87e-05 ± 2.1e-05 s⁻¹ | self-cleavage kobs at 2500 uM GlcN6P [2]: 0.000171 ± 5.2e-05 s⁻¹ | self-cleavage kobs at 10000 uM GlcN6P [4]: 9.85e-05 ± 1.9e-05 s⁻¹

A14C G43A G44A
self-cleavage kobs at 640 uM GlcN6P [1]: < 1e-05 s⁻¹ | self-cleavage kobs at 2500 uM GlcN6P [2]: < 1e-05 s⁻¹ | self-cleavage kobs at 10000 uM GlcN6P [4]: < 1e-05 s⁻¹

A12G A15G
self-cleavage kobs at 640 uM GlcN6P [1]: 7.71e-05 ± 9.2e-06 s⁻¹ | self-cleavage kobs at 160 uM GlcN6P [3]: 2.24e-05 ± 1e-05 s⁻¹ | self-cleavage kobs at 2500 uM GlcN6P [2]: 0.000155 ± 1.5e-05 s⁻¹ | self-cleavage kobs at 10000 uM GlcN6P [4]: 0.000371 ± 3.2e-05 s⁻¹

C11U U46C A52U U57C G66U
self-cleavage kobs at 640 uM GlcN6P [1]: < 1e-05 s⁻¹ | self-cleavage kobs at 160 uM GlcN6P [3]: < 1e-05 s⁻¹
